Results published in PubChem BioAssay AID624418 (National Center for Advancing Translational Sciences (NCATS), 2012).
The whole screen tested about 410,000 compounds, of which about 530 (0.13%) were called active. Inconclusive means that the source gave no clear call. Such entries were picked first, then a sample of the others. The call rests on the fitted dose curve; in most records, active means well fitted inhibition curve with a large enough effect; inconclusive means small, poorly fitted or top-dose-only effect, or another doubt; inactive means no such curve, though single readings can be large or run the other way. Potencies of inconclusive entries are doubtful fits and often do not repeat.

Assay: qHTS of GLP-1 Receptor Inverse Agonists: Cytotox Screen
Conditions: HEK293 cAMP-luciferase reporter cells, luminescence, 24 h; activity change, negative = inhibition: at 38.3 µM (top of the series) unless noted
How it was run: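 Compound-treated cells are incubated 24 hr at 37 deg C under 5% CO2 after a 12 hour attachment period, then luciferase detection reagent is added and luminescence is measured following 12 min at room temperature; lowered signal indicates toxicity.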
On the % scale 0 is the no-effect control and ±100 the full control effect; potency means the concentration at half of the fitted maximal effect.

SMILES	activity change, negative = inhibition	Potency
CC1(C)Cc2cccc(OCC(=O)N3CCN(c4ccccc4F)CC3)c2O1	inactive: 8.68%	
Cc1ccc2c(c1)N(C(=O)Nc1cccc3c1CCCC3)CC(C)O2 (configuration not stated)	inactive: 24%	
Cc1ccccc1CN1CCCN(CC(=O)Nc2ccc3c(c2)OCCO3)S1(=O)=O	inactive: -7.75%	
O=C(NCc1cccc(Cl)c1)C1CCCN(c2ncnc3onc(-c4ccc(F)cc4)c23)C1 (configuration not stated)	inactive: -10.1%	
Cc1ccc(Nc2nc(Cl)nc(NC3CCCCC3)n2)cc1		inconclusive: 2.82 µM [inhibitor, partial curve, poor fit]
Cc1nn(Cc2ccc([N+](=O)[O-])cc2)c(=O)n1-c1ccccc1Cl		inconclusive: 28.2 µM [inhibitor, single point]
CCOc1ccccc1C(=O)N[C@H](C(=O)Nc1nc2c(s1)CCCC2)C(C)C		inconclusive: 12.6 µM [inhibitor, single point]
Cc1ccc2cc(CN(Cc3ccco3)C(=O)c3cccs3)c(=O)[nH]c2c1		inconclusive: 4.47 µM [inhibitor, partial curve, poor fit]
Cc1cc(C)cc(NC(=O)CCN2C(=O)c3ccccc3Sc3ncccc32)c1		inconclusive: 12.6 µM [inhibitor, single point]
Cn1cccc1/C=C1\SC(=Nc2ccc(O)cc2)NC1=O		inconclusive: 5.01 µM [inhibitor, partial curve, poor fit]
Nc1[nH]n2c(=O)c3c(nc2c1N=Nc1ccccc1)CCCC3	inactive: -8.86%	
CCCOC(=O)c1cc(-c2ccc(C=O)o2)ccc1Cl		inconclusive: 11.2 µM [inhibitor, single point]
CCN1CCc2c(C#N)c(NCc3ccccc3)nc(N(CC)CC)c2C1		inconclusive: 28.2 µM [inhibitor, single point]
CC(=O)NC1=NN(C(C)=O)C(C)(c2ccccc2)S1 (configuration not stated)		inconclusive: 5.62 µM [inhibitor, full curve]
O=[N+]([O-])c1cccc(NC(=S)N2CCc3ccccc32)c1		inconclusive: 11.2 µM [inhibitor, single point]
COc1cccc(/C=N/Nc2ncc(C(F)(F)F)cc2Cl)c1O		inconclusive: 0.316 µM [inhibitor, full curve, poor fit]
Cc1ccc(/C=N/NC(=O)C2COc3ccccc3O2)s1 (configuration not stated)		inconclusive: 10 µM [inhibitor, partial curve, poor fit]
O=C(CSc1nc2ccccc2nc1SCC(=O)N1CCCCC1)N1CCCCC1		inconclusive: 14.1 µM [inhibitor, partial curve, poor fit]
CC(C)NC(=O)c1c(CSc2ccccc2)noc1C(=O)NCc1ccccc1	inactive: -20.3%	
COc1ccc(-c2cccc(NS(=O)(=O)c3cc(C)ccc3OC)c2)nn1	inactive: 6.92%	
CC1=NN(C(=O)COc2cc(C)ccc2C(C)C)C(O)(c2ccccc2)C1 (configuration not stated)		inconclusive: 5.01 µM [inhibitor, full curve, poor fit]

SMILES	activity change, negative = inhibition	Potency
Cc1ccccc1Nc1c(-c2ccc(N3CCOCC3)cc2)nc2ccc(Cl)cn12	inactive: 16.5%	
CCCC(C)Sc1nc2c([nH]1)c(=S)n(C)c(=O)n2C (configuration not stated)		inconclusive: 0.891 µM [inhibitor, full curve, poor fit]
CC(CNCCCn1cnc2c(OCc3ccccc3)ncnc21)c1ccccc1 (configuration not stated)		inconclusive: 22.4 µM [inhibitor, single point]
O=C1/C(=C\c2ccccc2)SC(=S)N1CCC(=O)N1CCCCC1CCO (configuration not stated)		inconclusive: 10 µM [inhibitor, partial curve]
C[C@@H]1CCC[C@@]2(O[C@@H](CCO)C[C@@H](O)[C@@H]2O)O1		inconclusive: 0.501 µM [inhibitor, full curve, poor fit]
Cc1cc(C)nc(Nc2nc(C(N)Cc3ccc(Cl)cc3)cs2)n1 (configuration not stated)		inconclusive: 28.2 µM [inhibitor, single point]
CCOc1ccccc1N1C(=O)CC(Sc2nccc(C)n2)C1=O (configuration not stated)		inconclusive: 15.8 µM [inhibitor, partial curve, poor fit]
CC1C/C(=C\c2cccnc2)C(=O)/C(=C/c2cccnc2)C1 (configuration not stated)		inconclusive: 3.98 µM [inhibitor, full curve]
O=C(Cc1cccc2ccccc12)NC(NC(=S)Nc1ccccc1Cl)C(Cl)(Cl)Cl (configuration not stated)	inactive: -17.1%	
COC(=O)c1ccc(COC(=O)CNC(=O)CNC(=O)c2ccc(OC)cc2)cc1		inconclusive: 12.6 µM [inhibitor, single point]
CCOC(=O)c1c(NC(=O)C(C)N2CCN(C(=O)c3ccco3)CC2)sc2c1CCCC2 (configuration not stated)		inconclusive: 8.91 µM [inhibitor, partial curve, poor fit]
COc1ccc(C(=O)O/N=C(\N)c2cccc(C)c2)cc1OC		inconclusive: 7.08 µM [inhibitor, partial curve, poor fit]
Cn1c(/C=N/O)nc2ccccc21	inactive: -4.01%	
O=C(/C=C/c1cccnc1)c1cccc(O)c1		inconclusive: 28.2 µM [inhibitor, single point]
CCN1CCN(c2nc(Nc3ccc(OC)cc3)nc(N)c2[N+](=O)[O-])CC1		inconclusive: 25.1 µM [inhibitor, single point]
CCOc1ccc(Nc2nc(Cc3nnc(SCC(=O)c4ccc(C)c(C)c4)o3)cs2)cc1		inconclusive: 10 µM [inhibitor, single point]
CC1CN(C(=S)NC(=O)c2ccccc2)CC(C)O1 (configuration not stated)		inconclusive: 12.6 µM [inhibitor, single point]
O=C(N/N=C/c1ccc[nH]1)c1sc2ccccc2c1Cl		inconclusive: 5.62 µM [inhibitor, full curve, poor fit]
COc1cc(Cl)ccc1NC(=S)N(CCCN1CCOCC1)Cc1cn(C)c2ccccc12		inconclusive: 22.4 µM [inhibitor, single point]
COc1ccc(C(=O)NCC(=O)N=Nc2c(O)n(Cc3ccccc3)c3ccccc23)cc1OC		inconclusive: 28.2 µM [inhibitor, single point]
Clc1ccc(-c2cc(CSc3ccccc3)on2)cc1	inactive: 19%	
